Measured values taken from article PMC6919601, “Identification of Plasmodium dipeptidyl aminopeptidase allosteric inhibitors by high throughput screening” (PLoS ONE, 2019).
In all, about 110,000 compounds went through this assay and about 230 (0.21%) showed an effect of 50% or more. Some of the results follow.

target: DPAP1 (Plasmodium falciparum, UniProt Q8IIJ9); test: primary screen, percent inhibition; read by cleavage of a fluorogenic dipeptide substrate; higher = more effect of the substance; parameters: species or system P. falciparum D10 trophozoite lysates; single well
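Note: 30 min substrate incubation versus DMSO and 10 µM JCP410 controls.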

Sequence of DPAP1 (Q8IIJ9 whole entry, looked up): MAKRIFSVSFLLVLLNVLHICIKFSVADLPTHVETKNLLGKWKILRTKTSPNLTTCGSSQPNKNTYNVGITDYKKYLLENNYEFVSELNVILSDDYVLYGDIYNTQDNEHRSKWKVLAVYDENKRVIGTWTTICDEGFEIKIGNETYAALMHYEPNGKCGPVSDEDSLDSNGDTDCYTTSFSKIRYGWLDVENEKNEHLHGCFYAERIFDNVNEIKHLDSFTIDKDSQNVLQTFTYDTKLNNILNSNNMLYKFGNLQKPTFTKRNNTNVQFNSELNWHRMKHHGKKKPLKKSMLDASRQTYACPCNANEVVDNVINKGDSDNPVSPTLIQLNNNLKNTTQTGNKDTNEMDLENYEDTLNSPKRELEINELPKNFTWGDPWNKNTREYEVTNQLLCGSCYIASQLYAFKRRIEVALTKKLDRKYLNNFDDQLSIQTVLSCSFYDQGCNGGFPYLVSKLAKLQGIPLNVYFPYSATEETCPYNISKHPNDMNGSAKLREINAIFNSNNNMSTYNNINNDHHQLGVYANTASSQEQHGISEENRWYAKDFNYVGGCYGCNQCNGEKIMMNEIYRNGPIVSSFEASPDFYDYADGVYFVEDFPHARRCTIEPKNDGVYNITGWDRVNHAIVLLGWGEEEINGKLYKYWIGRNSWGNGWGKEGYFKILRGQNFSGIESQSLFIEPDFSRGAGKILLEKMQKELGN

| Structure (SMILES) | % Inhibition @ 10 uM [%] |
| --- | --- |
| C#CCOc1cc(Br)c(/C=C2\SC(=O)N(C)C2=O)cc1OC | -3.06 |
| N#CC1=C(N)OC2=C(C(=O)CC(c3ccccc3)C2)C1c1ccc2ccccc2c1 (stereo not shown) | 15.8 |
| CC1=C(C(=O)OCCc2ccccc2)C(c2ccc(Cl)c(Cl)c2)NC(=O)N1 (stereo not shown) | -2.87 |
| Cc1ccccc1N1CCN(Cc2c(C)n(C)n(-c3ccccc3)c2=O)CC1 | 3.35 |
| Cn1cnc2nc(Cl)nc(NCCO)c21 | 5.37 |
| CCN(c1ccccc1)S(=O)(=O)c1cc([N+](=O)[O-])ccc1N | -0.239 |
| Cc1cc(C)nc(NS(=O)(=O)c2ccc(NC(=S)NC(=O)C34CC5CC(CC(C5)C3)C4)cc2)n1 | -8.3 |
| CCN(Cc1nc(-c2ccc(OC)c(OC)c2)no1)S(=O)(=O)c1ccc(Cl)cc1 | 0.758 |
| Cc1cc(C)c2c(n1)SCC(=O)N2CC(=O)NCc1ccccn1 | -2.37 |
| C=CCn1c(-c2ccc(Br)cc2)nc2ccccc21 | -0.551 |
| C=CCNC(=O)c1ccccc1NC(=O)CSCc1cccc(Cl)c1 | 3.05 |
| O=C(Nc1ncc(Cc2ccccc2Cl)s1)c1cc2ccccc2c(=O)o1 | -3.33 |
| O/C(=C\c1nc2ccccc2nc1O)C(F)F | -2.47 |
| CC1=C(C(=O)Nc2ccccc2)C(c2cccs2)C(C#N)=C(SCc2ccc(Cl)cc2)N1 (stereo not shown) | 7.11 |
| Cc1cccc(CN2CCN(CC(=O)NC3CCCCCC3)C2=O)c1 | -4.2 |
| O=C(NC1CCCC1)c1ccc([N+](=O)[O-])cc1Cl | 1.83 |
| COc1cc2c(OC)cccc2cc1C(=O)O | 0.776 |
| CC(=O)C1=C(O)C(=O)N(CCc2c(C)[nH]c3ccccc23)C1c1cccc(F)c1 (stereo not shown) | -0.703 |
| CCSc1nnc(NC(=O)CSc2nnc3c4cc(Br)ccc4n(C)c3n2)s1 | -4.24 |
| CCO/C(O)=C1\C(C)=NC2=C(C(=O)c3ccccc32)C1c1ccc(C(F)(F)F)cc1 (stereo not shown) | -1.86 |
| COc1ccccc1CNc1nc2c(-c3cccc(F)c3)nnn2c2ccccc12 | 2.04 |
| Cc1ccc(C)c(S(=O)(=O)N2CC(=O)N(CCc3ccccc3)C(=O)C2)c1 | 1.88 |
| O=C(Nc1nc(-c2ccccc2)cs1)C1Cc2ccccc2CN1S(=O)(=O)c1cccs1 (stereo not shown) | -10.1 |
| CCC1CCc2nc(S)c(C#N)c(C(F)(F)F)c2C1 (stereo not shown) | 88.2 |
| COC(=O)c1cccc2c1NC(=O)C2=O | 2.76 |

| Structure (SMILES) | % Inhibition @ 10 uM [%] |
| --- | --- |
| CCOc1ccc(/N=C2/S/C(=C\c3ccccc3O)C(=O)N2CC)cc1 | -1.61 |
| Cc1onc(-c2ccccc2)c1C(=O)NCCNC(=O)c1c(-c2ccccc2)noc1C | -8.14 |
| O=S(=O)(Nc1cc(Cl)c(Cl)cc1Cl)c1ccc(F)cc1 | 2.22 |
| O=C(/C=C/c1ccccc1)N1CCCC1 | 4.66 |
| CCCCc1ccc(NS(=O)(=O)c2cc(Cl)ccc2Cl)cc1 | -0.856 |
| Cc1ccc(CCNC(=O)Cn2nc(C)c3c(C)n(-c4ccccc4)nc3c2=O)cc1 | 4.65 |
| FC(F)(F)c1ccccc1CNc1ccc2c[nH]nc2c1 | -3.27 |
| CC(CN1CCN(C)CC1)OC(=O)c1ccccc1Br (stereo not shown) | -3.63 |
| CC1C/C(=C/c2cccn2C)C(=O)/C(=C/c2cccn2C)C1 (stereo not shown) | 0.287 |
| C=CCOc1ccc(C2CC(=O)OC3=C2C(=O)c2ccccc2C3=O)cc1 (stereo not shown) | -4.73 |
| CCN1CCC(N2CCCCCCC2)CC1 | 2.91 |
| Cc1cc(/C=C2\SC(Nc3ccc(F)cc3)=NC2=O)c(C)n1-c1ccncc1 | -1.38 |
| CC1(C)CC(=O)C2=C(C1)OC(N)=C(C#N)C21C(=O)N(Cc2ccccc2Cl)c2ccccc21 (stereo not shown) | -4.03 |
| Cc1cccc(CN2CCN(c3ccccc3F)CC2)c1 | -5.57 |
| CC(C)(C)n1ncc2c(=O)n(Cc3c(F)cccc3Cl)cnc21 | -1.75 |
| CCOc1ccc(-c2csc(/C(C#N)=C/c3ccc(Cl)cc3Cl)n2)cc1 | 1.92 |
| COc1ccc2[nH]c3c(=O)n(CC(=O)N(Cc4ccccc4)C(C)C)c(=S)[nH]c3c2c1 | 1.15 |
| Cc1ccc(OCC(O)CN2CCN(c3ccccc3)CC2)cc1C (stereo not shown) | 0.512 |
| COc1ccc(CN2CCN(S(=O)(=O)c3ccc(C)cc3)CC2)cc1 | 2.06 |
| O=S(=O)(NCc1ccc2c(c1)OCO2)c1ccc(-n2cnnn2)cc1 | 0.635 |
| O=C(O)c1ccc2c(c1)sc1nc(-c3ccc(Cl)cc3)cn12 | 1.72 |
| CCCN(CCC)C(=O)Cc1c(C)nc2c(-c3ccccc3)c(C)nn2c1C | 0.953 |
| CCCOc1ccc(C(CC(=O)O)NC(=O)c2ccc3c(c2)OCO3)cc1 (stereo not shown) | 1.03 |
| CCCOc1ccc(C(=O)Nc2ccc(N(CC)CC)cc2)cc1 | 3.35 |
| COc1ccc(C2NC(=O)c3ccccc3O2)cc1OC (stereo not shown) | -2.42 |

| Structure (SMILES) | % Inhibition @ 10 uM [%] |
| --- | --- |
| FC(F)(F)c1cccc(-c2ccc(-c3nn4c(-c5ccco5)nnc4s3)o2)c1 | -9.48 |
| CCNc1nc(OCC(F)(F)F)nc(N(c2ccccc2)c2ccccc2)n1 | 2.62 |
| C/C(=C\c1ccccc1)CN1CCN(c2cccc(C(F)(F)F)c2)CC1 | 0.0792 |
| COC(=O)c1ccc(C2CC(=O)NC3=C2C(=O)CC(c2cc(OC)ccc2OC)C3)cc1 (stereo not shown) | -3.51 |
| O=C(NC1CCCCCC1)C1CCN(S(=O)(=O)N2CCC3(CC2)OCCO3)CC1 | 2.18 |
| Cc1ccccc1Oc1cc(-n2ncc3c2CCCC3=O)ncn1 | 3.58 |
| COc1ccc(CN2CCC(O)CC2)cc1C | 7.72 |
| Cc1ccc(-c2noc(CCC(=O)NCCN3CCc4ccccc4C3)n2)cc1 | 3.51 |
| COc1ccc(OC)c(CCNC(=O)NCc2noc3ccccc23)c1 | 0.568 |
| CC(C)Cc1nn2cc(-c3ccccc3)nc2s1 | -0.946 |
| Cc1ccc(S(=O)(=O)NC(C)C(=O)NCCC2=CCCCC2)cc1 (stereo not shown) | 5.97 |
| O=C(Cc1ccc(Cl)cc1)Nc1cc(Cl)ccn1 | 4.83 |
| Cc1cc2oc(=O)cc(C)c2c2c3c([nH]c12)CCCC3 | 5.55 |
| O=C(c1cc2nc(-c3ccco3)cc(C(F)(F)Cl)n2n1)N1CCCCCC1 | 1.27 |
| Cc1ccc(C)n1CCN1CCN(C(=O)C(C)(C)C)CC1 | -5.2 |
| CSc1ccc(CCNC(=O)NCc2noc3ccc(C)cc23)cc1 | -2.26 |
| Cc1cccc(OCCCCCCN2CCCC2)c1 | 4.33 |
| CC1CCN(S(=O)(=O)N2CCC(C(=O)O)CC2)CC1 | -1.99 |
| CCOC(=O)c1oc2ccc(S(=O)(=O)n3nc(-c4ccc(Cl)cc4)cc3N)cc2c1C | -2.19 |
| O=C(CCCCCN1C(=O)c2ccccc2C1=O)Nc1cccc(O)c1 | -5.38 |
| Cc1cc2ncn(CCCOc3ccc(Cl)cc3)c2cc1C | -5.92 |
| O=C(O)c1cc(C(=O)O)cc(N2C(=O)C3C4CCC(C4)C3C2=O)c1 (stereo not shown) | 3.86 |
| Cc1cc(C(=O)OCCN2CCN(C3=NS(=O)(=O)c4ccccc43)CC2)c2ccccc2n1 | 0.275 |
| COC(=O)[C@H](Cc1ccccc1)NC(=O)[C@@H]1CCCN1C#N | 6.4 |
| COc1ccc(OC)c(NC(=O)c2c(-c3c(Cl)cccc3Cl)noc2C)c1 | 4.59 |

| Structure (SMILES) | % Inhibition @ 10 uM [%] |
| --- | --- |
| COc1ccc(C2C3=C(O)CCCC3=Nc3nc(SCC(C)C)nn32)cc1OC (stereo not shown) | 1.22 |
| CCOC(=O)C(C(=O)OCC)(N1CCOCC1)N1CCOCC1 | -3.75 |
| CC(C)CCn1c(=O)c2ccccc2n2c(CCC(=O)NCc3ccccc3)nnc12 | 0.277 |
| NC(=O)C1CCN(c2nc(-c3cccc4ccccc34)cs2)CC1 | 1.92 |
| O=C(Cn1cnc2sc3c(c2c1=O)CCCC3)NCc1ccccc1Cl | -2.87 |
| Cc1c2c(n(C)c1-c1ccccc1)C(c1ccccc1)Oc1ccccc1-2 (stereo not shown) | 5.48 |
| O=C(O)/C=C/C(=O)NCc1ccc(Cl)c(Cl)c1 | -0.256 |
| CCCSc1nnc(-c2ccccc2Cl)o1 | 2.22 |
| CCOc1cc(CN2CCN(c3ccc(Cl)cc3)CC2)ccc1O | -4.35 |
| OCC1OC(Oc2ccc(Cl)cc2)C(O)C(O)C1O (stereo not shown) | -2.18 |
| CCOc1ccc(OCc2ccc(C(=O)N3CCCC(C)C3)cc2)cc1 (stereo not shown) | -1.33 |
| CC(C)NC(=O)COc1ccc(-c2ccc(C#N)cc2)cc1 | 0.907 |
| Cc1ccc(C2C=C(c3ccc(Cl)cc3OC(F)F)Nc3ncnn32)cc1 (stereo not shown) | 3.45 |
| Cc1ccc2nc(CC(C)(C)CC(=O)O)c[n+]([O-])c2c1 | -1.05 |
| C#CCn1c(-c2ccco2)nc2ccccc21 | -2.28 |
| N=C(NC(=O)c1cccc(Cl)c1)Nc1nc2ccccc2s1 | 1.91 |
| CC1=C(C(=O)NCCN(C)C)C2(CCCCCC2)OC1=O | -1.07 |
| Cc1ccc(C2C=C(c3ccc(Cl)cc3)Nc3ncnn32)cc1 (stereo not shown) | -9.11 |
| O=C(NCCN1CCCC1)c1cc(-c2ccncc2)nc2ccc(S(=O)(=O)N3CCOCC3)cc12 | -0.971 |
| CC(=O)NC(C)(C)COc1ccc(Cl)cc1 | 1.98 |
| Cc1cc(N2CCC(O)CC2)nc2cc(Cl)ccc12 | -5.48 |
| COc1ccc(-c2ccc(C#N)c(SCC(=O)Nc3ccccc3F)n2)cc1OC | 4.28 |
| COc1ccc(NC2=NC(=O)C(Cc3ccccc3)C(=O)N2)cc1 (stereo not shown) | -3.76 |
| O=C(Cc1ccccc1)NCCc1nc2ccccc2n1Cc1ccccc1F | -3.48 |
| COc1cc(-c2nnc3sc(COc4ccc(C(C)(C)C)cc4)nn23)cc(OC)c1OC | 8.94 |
